How the values were obtained:
[1] = target: T1, HA-IκB-α (pCMV4-HA-IκB-α 1-317, expressed in transfected cells) (UniProt P25963 1-317); experiment: GST pulldown from extracts of transfected HeLa cells, MEFs and p50-/- p65-/- MEFs, anti-HA Western blot
T1 sequence (looked up): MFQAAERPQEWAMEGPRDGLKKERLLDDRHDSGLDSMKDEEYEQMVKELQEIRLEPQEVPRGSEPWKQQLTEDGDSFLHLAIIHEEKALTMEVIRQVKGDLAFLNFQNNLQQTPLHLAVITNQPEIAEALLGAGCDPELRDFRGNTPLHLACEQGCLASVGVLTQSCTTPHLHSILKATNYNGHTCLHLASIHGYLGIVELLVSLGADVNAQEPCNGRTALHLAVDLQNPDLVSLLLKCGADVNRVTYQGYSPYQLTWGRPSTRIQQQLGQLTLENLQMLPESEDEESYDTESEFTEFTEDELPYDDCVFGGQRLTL

[2] = target: T2, [35S]methionine-labeled IκB-α 1-269 (in vitro translated) (UniProt P25963 1-269, [35S]methionine label); experiment: GST pulldown of [35S]-labeled in vitro translated protein, autoradiography
T2 construct: Translated in vitro from pcDNA3
T2 sequence (looked up): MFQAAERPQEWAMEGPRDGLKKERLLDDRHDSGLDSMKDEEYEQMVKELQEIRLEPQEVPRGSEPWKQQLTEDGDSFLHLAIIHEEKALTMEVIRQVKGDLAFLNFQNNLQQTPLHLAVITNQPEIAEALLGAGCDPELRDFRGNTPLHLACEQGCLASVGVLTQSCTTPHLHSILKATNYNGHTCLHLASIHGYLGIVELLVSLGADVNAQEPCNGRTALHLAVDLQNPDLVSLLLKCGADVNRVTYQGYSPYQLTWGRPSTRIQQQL

[3] = target: T3, [35S]methionine-labeled IκB-α 1-263 (in vitro translated) (UniProt P25963 1-263, [35S]methionine label); experiment: as above
T3 construct: Translated in vitro from pcDNA3
T3 sequence (looked up): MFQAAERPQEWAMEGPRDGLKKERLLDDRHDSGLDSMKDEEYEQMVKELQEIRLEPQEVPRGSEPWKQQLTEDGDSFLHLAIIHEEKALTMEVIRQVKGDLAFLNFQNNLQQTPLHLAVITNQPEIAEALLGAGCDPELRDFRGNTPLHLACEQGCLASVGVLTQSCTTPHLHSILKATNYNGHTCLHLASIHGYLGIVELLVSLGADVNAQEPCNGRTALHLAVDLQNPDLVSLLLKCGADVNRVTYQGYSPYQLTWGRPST

[4] = target: T4, [35S]methionine-labeled IκB-α 1-317 (in vitro translated) (UniProt P25963 1-317, [35S]methionine label); experiment: as above
T4 construct: Translated in vitro from pcDNA3 (T7 promoter); also called IκB-α wild type
T4 sequence (looked up): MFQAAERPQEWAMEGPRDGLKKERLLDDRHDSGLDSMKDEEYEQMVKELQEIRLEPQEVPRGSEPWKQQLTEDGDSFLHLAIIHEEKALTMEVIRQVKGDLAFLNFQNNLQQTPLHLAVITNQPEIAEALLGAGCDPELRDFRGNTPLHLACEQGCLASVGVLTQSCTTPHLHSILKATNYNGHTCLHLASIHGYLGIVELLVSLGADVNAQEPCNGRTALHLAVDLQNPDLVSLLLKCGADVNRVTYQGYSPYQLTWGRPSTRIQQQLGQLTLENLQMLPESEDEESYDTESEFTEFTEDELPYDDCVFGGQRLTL

Measured: binding result

B1: GST (other)
chain: not shown
notes: Negative control in the pulldowns; also called GST protein; GST alone
no binding: [1] | [2] | [3] | [4]

— US20100093618A1 (published 2010)
